To fix the notation:
B1: LINE1-full (parent)
chain: UACGUAGGUGGUUUUCCCCUGAUAGUGCUAAGGGGGCCUGGAAGUUUGGACUGGGCAGAGCUCAACACAGCGUGGCAAAGUGGCUGUGGCUAGACUGCCUCUCUGGAUUCCUCGUCACUCAGCAGGGCAUCUCUGAGAGAAAUGCC

The source of these data is the RNAGym collection of RNA variant scans (doi:10.7554/elife.90254).

The source gives no read counts; variants with many changes may rest on few reads.

The variants in the data set derive from B1. Kind of data set: self-cleavage, relative activity (ratio to wild type); higher = more cleavage; in vitro, sequencing; the parent is a self-cleaving ribozyme.
Regarding U1C A78U A107U, the self-cleavage was found to be 1.68.

In the case of U1C U132C U134G, the self-cleavage is 1.97.

A2C A24U A77U: the self-cleavage came to 0.9.

For A2G A43G C56U, the self-cleavage was found to be 0.22.

In the case of U1C U12C A64G, the self-cleavage worked out at 0.34.

Take U1C G86A A107U U112C: the self-cleavage was 0.06.

As for A2G A43C A59G U73C, the self-cleavage was found to be 1.84.

As to U1C U23C A59G, the self-cleavage came to 0.07.

Consider U1C G34A U47C, for which the self-cleavage was 0.76.

Consider U1C G40U A59G U102C U119C, for which the self-cleavage was found to be 0.12.

For U1C U13C A22G, the self-cleavage stood at 0.46.

As for U1G U112C A136G, the self-cleavage is 0.99.

U1C U39A A57G: the self-cleavage was 0.36.

Regarding A2C A59U U132A, the self-cleavage amounted to 0.74.

Regarding U1C A67G C120U, the self-cleavage is 0.44.

Take A2G A30U G55A A124G U132C: the self-cleavage was 0.15.

As to A2G A42U C56G U62C A67G C113U, the self-cleavage turned out to be 0.55.

Regarding A2G A30G A65U C113U, the self-cleavage worked out at 0.12.

As to U1C U62A U73A A142G, the self-cleavage turned out to be 0.05.

Take A2G A31G U102C: the self-cleavage was determined as 0.29.

In the case of A2G A42U A107G, the self-cleavage is 0.51.

On to U1C G11A U46C, for which the self-cleavage was 0.75.

For the variant U1C U14C G21U U96C, the self-cleavage came out at 0.07.

Turning to U1C A107U U130C, the self-cleavage turned out to be 0.82.

In the case of A2G A77U U100C G122C A129G G135A, the self-cleavage is 1.57.

For U1C G53A G139U, the self-cleavage stood at 1.3.

For U1C C95G A140G, the self-cleavage is 0.03.

With A2G A50U A77U C113A U130C, the self-cleavage amounted to 1.05.

For U1C U46C U62A A79G G106C, the self-cleavage is 0.06.

As for A2G A42G A78U U85C U115C, the self-cleavage was found to be 0.24.

Consider U1C U52G A65G, for which the self-cleavage came to 0.1.

On to U1C U39A A107G, for which the self-cleavage is 1.77.

Turning to U1G A57G U87A U130A, the self-cleavage worked out at 0.28.

For the variant U1C G4A U5G A92U U108C, the self-cleavage worked out at 0.63.

As for U1C U12G U52A, the self-cleavage was 0.7.

For the variant U1C U13C A136G, the self-cleavage came out at 0.65.

Turning to U1C U13C A136U, the self-cleavage is 0.9.

Regarding U1G U14C U29C A136G, the self-cleavage stood at 0.6.

On to U1C U12C U85C A138G, for which the self-cleavage came out at 0.24.

As to U1G U46C G54A, the self-cleavage worked out at 1.2.

Turning to U1C C123U U132C, the self-cleavage worked out at 0.72.

On to U1C U87C C103U A124U, for which the self-cleavage stood at 0.05.

Regarding U1C U14C U52C U115C, the self-cleavage stood at 1.72.

For the variant U1C U15A A24U U134C A136U, the self-cleavage came out at 0.45.

With U1C U62C C84A, the self-cleavage is 0.09.

As for A2G A92G U102C A136G, the self-cleavage was found to be 0.

Turning to U1C U104C A142G U143C, the self-cleavage amounted to 2.04.

As for U1C U14C A78U A138G, the self-cleavage was determined as 1.16.

As for U1C A69G A129G, the self-cleavage is 2.

Consider U1C U13C A42C A78G, for which the self-cleavage came out at 0.66.

Turning to U1C G72A A140G, the self-cleavage is 0.67.

Take U1C G11A U52C: the self-cleavage was 0.67.

Consider U1C U39C U134A, for which the self-cleavage was found to be 0.64.

In the case of U1C A77U A78G A94G, the self-cleavage is 0.

Consider A2G A42G A77U A79G, for which the self-cleavage stood at 1.07.

As to U1C A107G U119C A136G, the self-cleavage worked out at 0.63.

Consider U1C U23A G54A U96A U109C C145A, for which the self-cleavage was found to be 0.04.

For A2G A24U A65G U100C U104A C118U, the self-cleavage amounted to 0.18.

U1C C120U A142G: the self-cleavage came to 0.98.

Regarding U1C C38U U119C, the self-cleavage is 0.98.

For the variant U1C U39A A69G, the self-cleavage is 0.4.

For the variant U1G U12C U20A A42G U102C, the self-cleavage is 0.

In the case of U1C U39A A94U, the self-cleavage came out at 0.12.

Turning to U1G A50U U87A A117U A140G, the self-cleavage was 0.11.

Consider A2C U20A G44A U73A, for which the self-cleavage stood at 1.01.

With U1C C56U U108C, the self-cleavage was 0.15.

Turning to A2C A22U A77G, the self-cleavage came out at 2.22.

With U1C U23C G127A, the self-cleavage turned out to be 2.24.

Turning to A2G A24G A31G U45G A142G, the self-cleavage came out at 0.

As to U1C U39G A50G G80A G125A, the self-cleavage came out at 1.04.

With A2G A50G A141G, the self-cleavage is 0.56.

Take U1C A142G U143C: the self-cleavage was determined as 0.95.

For A2G A64G U81C U143A, the self-cleavage turned out to be 0.37.

In the case of U1C A65G U115C, the self-cleavage was determined as 0.

Consider A2G A65G A141G, for which the self-cleavage was 0.

With U1C C56U G58U U81C, the self-cleavage was 0.02.

With U1C A67C G74A, the self-cleavage was 0.07.

As for U1C U87C A142G, the self-cleavage stood at 0.48.

With A2G A69G A94U A136U, the self-cleavage stood at 0.59.

Regarding A2C U23C U47C U85A U112C, the self-cleavage is 0.78.

Consider A2G A6G A67G, for which the self-cleavage worked out at 0.

With A2C U14A U102C A121U, the self-cleavage came to 0.66.

In the case of U1C G4U U47C A65G A136U, the self-cleavage was 0.

As for U1C U13C A50G U143C, the self-cleavage is 0.49.

In the case of U1C G7A A24G, the self-cleavage was found to be 1.84.

Take A2G A64G U134C: the self-cleavage amounted to 0.88.

Regarding U1C U62C U87C, the self-cleavage came to 0.41.

In the case of U1C U39C G40A U62C A64U, the self-cleavage stood at 0.06.

With U1C U12A G40A A79G, the self-cleavage is 0.4.

Take A2G A77G A117G A129U: the self-cleavage stood at 1.15.

As to A2G A42U A121U, the self-cleavage was found to be 0.61.

For U1C U47A U73C U104C A136G, the self-cleavage turned out to be 1.39.

In the case of U1C U13C G35A U100A U102C, the self-cleavage turned out to be 0.63.

Turning to U1C C3A A30G, the self-cleavage was determined as 0.55.

As to U1C U87C A141U, the self-cleavage came out at 0.14.

On to U1G C63U A92G A94G, for which the self-cleavage is 0.43.

U1C A77C U108C A124G: the self-cleavage came out at 0.44.

U1C U112A G135U C145U: the self-cleavage came to 1.29.

Turning to U1C G53A U87A, the self-cleavage stood at 0.03.

Regarding U1C U14A U119C, the self-cleavage was 1.17.

With A2G A30U U87C G122U, the self-cleavage came to 0.24.

On to A2C U14C A59G A136U, for which the self-cleavage amounted to 0.

In the case of U1C U14A U100C, the self-cleavage turned out to be 0.

Take U1C A107G A124U: the self-cleavage was found to be 0.64.

In the case of U1C U45C U109A, the self-cleavage was 0.81.

In the case of U1C U87C G127C, the self-cleavage is 0.74.

Take U1C U9A A69U U132A: the self-cleavage is 0.03.

For the variant U1C U23C U47G U100A A142G, the self-cleavage is 0.53.

Take A2G A43U U96C: the self-cleavage is 0.21.

With A2C U23A A136G, the self-cleavage stood at 1.7.

On to U1C C28U G40U A57G A94G U112C, for which the self-cleavage is 0.

With U1C G8A U73A A129U A140G, the self-cleavage was 1.02.

With U1C U12G A42G A141G U143C, the self-cleavage was 2.45.

On to U1C U12C A59G A92U C113A, for which the self-cleavage was found to be 0.

For A2G A24U A59G, the self-cleavage turned out to be 0.41.

As for U1C U100C U104C, the self-cleavage came to 0.

As to A2C U5C A64U U108A U115C, the self-cleavage came to 0.87.

For the variant U1C G122U U134C, the self-cleavage came to 0.91.

As to A2C U52A A92G A129G A140C, the self-cleavage amounted to 0.

As for A2G A22G G25A, the self-cleavage came to 0.48.

Regarding U1C A67G G80A, the self-cleavage was 0.71.

For U1C U45A A136G, the self-cleavage was 1.16.

Turning to U1C U15C A65G A121U, the self-cleavage is 0.

As to U1C C18A U20C, the self-cleavage was found to be 0.

Consider A2G A65G U87A, for which the self-cleavage was found to be 0.13.

As to U1C U46A A142G, the self-cleavage amounted to 1.33.

With U1G U13C U39C, the self-cleavage was determined as 0.9.

As for A2G A64U U115C A117G G127A, the self-cleavage is 0.85.

In the case of U1C G21U G33U, the self-cleavage came to 1.07.

U1C U12G U29C U47A U115C U134A: the self-cleavage worked out at 1.18.

For A2G A77G C146U, the self-cleavage was found to be 1.36.

Consider U1C U15C U47C C63U U102C C113U, for which the self-cleavage turned out to be 0.18.

In the case of U1C U119C U132C A138G U143A, the self-cleavage came out at 0.45.

A2G A22G U104C U112C: the self-cleavage stood at 1.53.

With U1C C61A U143C, the self-cleavage worked out at 0.05.

In the case of U1C U47G U85C, the self-cleavage was 0.1.

For the variant U1C U85C A141G, the self-cleavage was 0.27.

With U1C G34C U108C C111U A121G U134C, the self-cleavage is 1.44.

For U1C U115A U143A, the self-cleavage is 0.94.

In the case of U1C A77G U102A A141G, the self-cleavage worked out at 1.13.

In the case of U1C U13C U96C, the self-cleavage stood at 0.04.

A2G A92G A121U U134C: the self-cleavage is 0.

As for A2G A6G U46C A78G U119C, the self-cleavage stood at 0.63.

With A2G A24G U29C G89A, the self-cleavage worked out at 0.

As to U1C U20G C28A C71U A129G, the self-cleavage amounted to 0.47.

Regarding U1C U12G A65U U85A G125U, the self-cleavage amounted to 0.08.

For the variant U1C U14C A92U U109C A140U, the self-cleavage stood at 0.3.

Regarding U1C A65U U73C U85A, the self-cleavage was determined as 0.

Take U1G G60A C76U: the self-cleavage amounted to 0.12.

For the variant U1C G72A U73C U87G A107G, the self-cleavage came out at 0.05.

As for U1C U26A G35U U102C, the self-cleavage came out at 0.41.

With A2G A59U A140G, the self-cleavage amounted to 0.53.

Take U1C U5C A6G: the self-cleavage turned out to be 0.49.

Take U1C U91C U132A: the self-cleavage was 0.68.

As for U1C U13C U52C, the self-cleavage was 0.97.

Consider U1C G32U A94G, for which the self-cleavage amounted to 0.26.

With U1C U115C A121U, the self-cleavage turned out to be 0.84.

On to A2G A24G A30U, for which the self-cleavage amounted to 0.54.

For U1C U39A U100C, the self-cleavage stood at 0.83.

Consider U1C U13C U26C U47C U52C, for which the self-cleavage stood at 1.53.

Consider U1C U62C U115G A121U A140G, for which the self-cleavage worked out at 0.13.

Take U1C U26A A117G A138G: the self-cleavage was 1.41.

With U1C U26C U87A U108C A138G, the self-cleavage turned out to be 0.07.

U1G U87C G97A: the self-cleavage is 0.07.

In the case of A2G A69G U102C, the self-cleavage was 0.42.

For the variant U1C G4A U15C A117G G139A, the self-cleavage is 0.

Regarding U1C U14C U62C G122A A129G, the self-cleavage is 0.12.
